The supplement of paper PMC3334620
The full ranking holds about 33,000 sequences; the median of “E-score (-0.5 to 0.5)” is about -0.036, and the highest 2% start at about 0.37. This is one part of the list.

Target: T1, Yer064c (UniProt P40041)
T1 sequence: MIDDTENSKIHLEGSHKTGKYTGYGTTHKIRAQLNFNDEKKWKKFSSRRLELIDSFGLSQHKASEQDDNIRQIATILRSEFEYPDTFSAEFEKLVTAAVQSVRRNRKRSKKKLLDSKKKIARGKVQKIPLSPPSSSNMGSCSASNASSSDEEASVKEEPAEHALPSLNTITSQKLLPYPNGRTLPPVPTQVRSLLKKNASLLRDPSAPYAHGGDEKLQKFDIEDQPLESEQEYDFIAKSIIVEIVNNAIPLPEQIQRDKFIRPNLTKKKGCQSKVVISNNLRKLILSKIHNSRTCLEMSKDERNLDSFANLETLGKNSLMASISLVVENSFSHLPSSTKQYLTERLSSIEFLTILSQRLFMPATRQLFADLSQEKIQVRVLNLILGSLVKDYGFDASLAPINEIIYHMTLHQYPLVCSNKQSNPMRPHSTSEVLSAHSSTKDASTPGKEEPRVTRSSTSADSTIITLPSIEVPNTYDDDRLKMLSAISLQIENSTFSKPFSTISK
Test: PBM E-score (8-mer binding enrichment) (E-score (-0.5 to 0.5)); higher = stronger / more preferred TF binding; most listed sequences are background and not binding sites
Conditions: protein concentration: 200 nM; construct: GST-full length
Outline: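 Detection of bound protein used fluorescent anti-GST, with scans normalised by masliner. The proteins were GST-tagged yeast transcription factors applied at about 100-200 nM to universal all-10-mer Agilent arrays made double-stranded by primer extension. Each ungapped eight-base word, pooled with its reverse complement, was scored with an E-score from the Universal PBM Analysis Suite.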

Sequence	PBM E-score
GGCCGTGA	-0.0139
ATAGGGGA	-0.148
GACGTTGC	-0.196
ATATCATA	0.00064
ATATGCGC	-0.0135
ATGAGGCA	-0.307
CATCCAAC	0.00904
CTTATAGC	-0.104
AGGTACCC	-0.0331
AAGTCCCC	-0.157
CTATGAGC	0.234
CATAGTAG	0.0263
AAGTACGG	-0.194
TAGCTAGA	-0.0401
GAGGGTGA	0.114
AACCCGGG	-0.13
CACGACTC	0.437
GAACAACC	0.0303
CGGCACCG	-0.243
AATGCCGC	-0.199
CAAACTTG	-0.189
ATTGTAAG	0.0138

Sequence	PBM E-score
CAATGCTC	-0.0304
GGATCTGA	-0.0808
ACCCTGAC	0.158
ATTCGTCA	-0.125
CCTTAGGC	-0.0901
AGTGTGCG	-0.149
AGTATCTA	0.0526
ACGATTCC	0.222
ATGGTGTC	0.0538
GTTATTGA	0.102
ATGGTATC	-0.0539
CAATGGGA	-0.0963
CGCCTAGA	-0.16
CATAGGCA	-0.203
TCCCCGAA	-0.219
GGTCCTAA	0.0129
GGGAAGTA	-0.131
CAATCGCA	0.117
ACGACTCA	0.477
CCGCTGTA	-0.0877
CGCCCACG	-0.147
GACGCATC	-0.283

Sequence	PBM E-score
ATGGGCCG	-0.177
TTAATTAA	0.0383
GTCACTTA	0.235
AAGATTAT	0.0932
GATTATTA	0.233
AATTTAGA	0.18
CCGGGTCC	-0.202
TAATACAA	0.0585
TTCTACAA	0.0422
GTTGCAGA	0.00855
TCCCTTAA	-0.0594
TAGGTATA	-0.123
CCGTATTA	0.0205
GAATGGAC	-0.0975
AAATATGC	-0.13
CCAACCGC	-0.211
AAATCCCA	-0.203
TCCGCCCA	-0.0784
GGTGGCTA	0.181
ATAAGCCG	-0.167
CTTAAATC	0.293
TCAAGTAA	0.184

Sequence	PBM E-score
GCGTTCAA	-0.00967
CTCGTTCA	-0.0674
TGGCAAAA	0.0917
CCTAAAAA	-0.0364
ATCCCAGG	-0.318
CCAGTTAC	-0.35
ACGAAGTG	-0.00708
ACCAGACT	0.0775
ACAATTAT	0.114
ATTTGTGG	0.044
ATCAACTG	0.131
ACAGCCTA	-0.0814
GCCGTTAA	-0.133
AAGAGGTC	-0.098
CTTTGCAC	0.0676
ACATAGCG	-0.094
GCATCCTA	-0.183
CAGGAGAC	0.0872
CCCCTATC	-0.133
AGTCCGTA	0.188
